Our source for the TetR repression strength values is a collection of fitness landscapes (doi:10.1038/s41467-024-54723-y).

Whole data set: some 18,000 sequences, median “TetR repression strength (sort-seq, GFP reporter)” near 0.23, cut for the highest 2% near 0.68. The list shows a part of the results.

The assay has as its target TetR (class B, Tn10) (UniProt P04483). Briefly: TetR repression strength (sort-seq, GFP reporter) (relative to tetO2 = 1); higher = stronger repression. The settings on record: E. coli. The gist of the method: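 E. coli SIG10-MAX carried a low-copy plasmid library with eight randomized operator positions between a constitutive promoter and sfGFP, with TetR constitutively expressed. Cells grew 5 h at 37 °C in LB with 50 µg/mL chloramphenicol, then 10^6 cells were FACS-sorted into 13 fluorescence bins, each Illumina-sequenced. Repression strength is the top bin index plus one minus the read-weighted mean bin, divided by the wild-type operator value. Three independent transformations; variants with ≥30 reads in all replicates and CV ≤0.5 were averaged.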
UniProt P04483, sequence (P04483 whole entry): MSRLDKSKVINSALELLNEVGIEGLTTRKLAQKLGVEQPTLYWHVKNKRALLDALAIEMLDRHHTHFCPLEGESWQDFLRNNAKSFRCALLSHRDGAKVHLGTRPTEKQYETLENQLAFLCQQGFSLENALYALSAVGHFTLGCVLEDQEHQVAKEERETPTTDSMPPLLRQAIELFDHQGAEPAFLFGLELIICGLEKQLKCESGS
In the case of TCCCGTCGAGTCCAGGAGA, the TetR repression strength stood at 0.182.

Sequence TCCCTTGCAGTTACCGAGA came in with a TetR repression strength of 0.874.

TCCCGGCGAGTTGGTGAGA returned a TetR repression strength of 0.255.

The sequence TCCCACGGAGTGATCGAGA had a TetR repression strength of 0.294.

The sequence TCCCGTATAGTTATTGAGA had a TetR repression strength of 0.175.

In turn, TCCCGATGAGTTAAGGAGA showed a TetR repression strength of 0.797.

As for TCCCGGATAGTGAGGGAGA, the TetR repression strength is 0.134.

As to TCCCTACCAGTGCGTGAGA, the TetR repression strength was 0.403.

Sequence TCCCTATTAGTTCGCGAGA had a TetR repression strength of 0.

On to TCCCAGTAAGTCTTGGAGA, for which the TetR repression strength turned out to be 0.148.

TCCCTAACAGTGATGGAGA: the TetR repression strength was 0.278.

The sequence TCCCAGGGAGTTTGTGAGA yielded a TetR repression strength of 0.0436.

For TCCCCGGTAGTTCGCGAGA, the TetR repression strength is 0.638.

For TCCCTGTGAGTATAAGAGA, the TetR repression strength amounted to 0.264.

With TCCCTTCCAGTTAGGGAGA, the TetR repression strength was 0.24.

On to TCCCCAGTAGTTGGAGAGA, for which the TetR repression strength came to 0.

Regarding TCCCTATCAGTGGTGGAGA, the TetR repression strength came to 0.402.

Take TCCCACGTAGTGTATGAGA: the TetR repression strength is 0.0186.

Consider TCCCCAGGAGTGATGGAGA, for which the TetR repression strength turned out to be 0.176.

Turning to TCCCCGTTAGTCTCTGAGA, the TetR repression strength came to 0.65.

The sequence TCCCCGCTAGTCTTAGAGA had a TetR repression strength of 0.305.

Sequence TCCCGGCTAGTTTGGGAGA had a TetR repression strength of 0.0849.

TCCCCTCGAGTGTTTGAGA returned a TetR repression strength of 0.92.

Take TCCCTTTAAGTCTTGGAGA: the TetR repression strength stood at 0.194.

In the case of TCCCTGTTAGTGCCAGAGA, the TetR repression strength worked out at 0.193.

The sequence TCCCACACAGTCCTCGAGA came in with a TetR repression strength of 0.417.

With TCCCTGGAAGTAACAGAGA, the TetR repression strength was found to be 0.235.

The sequence TCCCGGTAAGTATGGGAGA gave a TetR repression strength of 0.157.

Sequence TCCCGTGCAGTTAGTGAGA returned a TetR repression strength of 0.159.

Take TCCCAATTAGTGTTAGAGA: the TetR repression strength came to 0.421.

Take TCCCAGCTAGTAAGAGAGA: the TetR repression strength is 0.254.

As for TCCCAGCTAGTTGAGGAGA, the TetR repression strength stood at 0.255.

In turn, TCCCAATCAGTACGTGAGA showed a TetR repression strength of 0.213.

The sequence TCCCTTACAGTACTCGAGA had a TetR repression strength of 0.456.

Sequence TCCCACGCAGTAGTCGAGA displayed a TetR repression strength of 0.0565.

As for TCCCCCTAAGTAGGGGAGA, the TetR repression strength came out at 0.239.

TCCCGGGCAGTGCTCGAGA showed a TetR repression strength of 0.298.

On to TCCCGGAGAGTCTTGGAGA, for which the TetR repression strength turned out to be 0.34.

Take TCCCACAAAGTGGCGGAGA: the TetR repression strength amounted to 0.306.

TCCCAATTAGTGCAAGAGA displayed a TetR repression strength of 0.301.

TCCCACAAAGTAGGGGAGA displayed a TetR repression strength of 0.213.

TCCCGATAAGTGGATGAGA yielded a TetR repression strength of 0.104.

Regarding TCCCCGATAGTGCTGGAGA, the TetR repression strength stood at 0.253.

TCCCGGAGAGTGCTGGAGA showed a TetR repression strength of 1.07.

With TCCCGTTCAGTCGATGAGA, the TetR repression strength is 0.224.

For the sequence TCCCTTATAGTTCTTGAGA, the TetR repression strength was 0.311.

TCCCCTGCAGTTTTAGAGA: the TetR repression strength was found to be 0.352.

Sequence TCCCGGCTAGTTGTCGAGA showed a TetR repression strength of 0.171.

On to TCCCGCGTAGTAGCTGAGA, for which the TetR repression strength stood at 0.301.

As for TCCCACGAAGTTTGTGAGA, the TetR repression strength was 0.344.

Consider TCCCTTTAAGTAACGGAGA, for which the TetR repression strength stood at 0.0871.

Regarding TCCCGAGGAGTGAAGGAGA, the TetR repression strength stood at 0.26.

TCCCCGAGAGTGTTCGAGA registered a TetR repression strength of 0.172.

TCCCACATAGTTTAAGAGA registered a TetR repression strength of 0.187.

TCCCGCGGAGTCGACGAGA gave a TetR repression strength of 0.125.

TCCCGGGTAGTGGTCGAGA registered a TetR repression strength of 0.443.

On to TCCCGACGAGTACCGGAGA, for which the TetR repression strength was found to be 0.207.

TCCCTCTTAGTCCGTGAGA returned a TetR repression strength of 0.461.

TCCCTCCCAGTGGCTGAGA came in with a TetR repression strength of 0.255.

For TCCCTCCTAGTGCAGGAGA, the TetR repression strength came out at 0.259.

Regarding TCCCGATCAGTTCTTGAGA, the TetR repression strength amounted to 0.252.

For TCCCTAGCAGTGGTGGAGA, the TetR repression strength was 0.27.

For the sequence TCCCGCTAAGTAGGTGAGA, the TetR repression strength stood at 0.017.

In turn, TCCCTCGCAGTTCAAGAGA gave a TetR repression strength of 0.363.

Sequence TCCCGTTCAGTGCGAGAGA had a TetR repression strength of 0.0532.

TCCCCTTGAGTATGCGAGA: the TetR repression strength was determined as 1.05.

For TCCCCGCCAGTTGATGAGA, the TetR repression strength came to 0.349.

Consider TCCCCGCCAGTCCAGGAGA, for which the TetR repression strength is 0.104.

On to TCCCTATCAGTGGCCGAGA, for which the TetR repression strength is 0.724.

Regarding TCCCCGTGAGTCTAGGAGA, the TetR repression strength came to 0.101.

Sequence TCCCGTGCAGTTTAAGAGA showed a TetR repression strength of 0.227.

In the case of TCCCACATAGTCGGGGAGA, the TetR repression strength was 0.245.

Regarding TCCCGGACAGTGTGTGAGA, the TetR repression strength is 0.2.

TCCCGGTCAGTTAGGGAGA had a TetR repression strength of 0.281.

Turning to TCCCGCGAAGTGGAGGAGA, the TetR repression strength was 0.14.

In turn, TCCCAGGGAGTCGACGAGA gave a TetR repression strength of 0.223.

In turn, TCCCTGTCAGTGCTGGAGA had a TetR repression strength of 0.361.

For the sequence TCCCGGGAAGTAAGAGAGA, the TetR repression strength turned out to be 0.172.

As for TCCCACTTAGTACGGGAGA, the TetR repression strength came out at 0.24.

On to TCCCGTAGAGTTGATGAGA, for which the TetR repression strength worked out at 0.551.

TCCCCACTAGTTTAAGAGA showed a TetR repression strength of 0.398.

In turn, TCCCGCCGAGTTGGAGAGA gave a TetR repression strength of 0.274.

In turn, TCCCTCAGAGTCTCGGAGA showed a TetR repression strength of 0.104.

Sequence TCCCGGACAGTAAGCGAGA gave a TetR repression strength of 0.622.

TCCCATAAAGTTTTTGAGA came in with a TetR repression strength of 0.344.

On to TCCCGGTGAGTTCCTGAGA, for which the TetR repression strength is 0.152.

TCCCGTGAAGTTAATGAGA displayed a TetR repression strength of 0.401.

In turn, TCCCTACTAGTTCGAGAGA displayed a TetR repression strength of 0.354.

As for TCCCTTTTAGTGATCGAGA, the TetR repression strength turned out to be 0.247.

Consider TCCCGGGAAGTGTCTGAGA, for which the TetR repression strength stood at 0.355.

TCCCCGGAAGTTTGAGAGA came in with a TetR repression strength of 0.218.

As to TCCCTTTTAGTGTCCGAGA, the TetR repression strength was 0.444.

As to TCCCGGTGAGTCGGCGAGA, the TetR repression strength came to 0.2.

TCCCGTTGAGTAGTCGAGA: the TetR repression strength is 0.0303.

TCCCCGTAAGTATTGGAGA registered a TetR repression strength of 0.247.

TCCCTCTAAGTAAAAGAGA gave a TetR repression strength of 0.183.

For the sequence TCCCTTAGAGTGTTGGAGA, the TetR repression strength is 0.108.

The sequence TCCCGGTGAGTAGCGGAGA came in with a TetR repression strength of 0.208.

TCCCGTGGAGTAGGCGAGA yielded a TetR repression strength of 0.22.

Turning to TCCCCATAAGTTGGGGAGA, the TetR repression strength came to 0.367.

The sequence TCCCCTTGAGTGACCGAGA yielded a TetR repression strength of 0.344.

As for TCCCCGGGAGTTGATGAGA, the TetR repression strength was 0.115.
